Whole data set: some 81,000 sequences, median “one-hybrid fitness for binding parS DNA” near -0.17, cut for the highest 2% near 0.51. This is one part of the list.
B1: Caulobacter ParB omega fusion; a variant is named by its letters at X, in order, B8GW30 (parent)
chain: MESVVVGEPGMSEGRRGLGRGLSALLGEVDAAPAQAPGEQLGGSREAPIEILQRNPDQPRRTFREEDLEDLSNSIREKGVLQPILVRPSPDTAGEYQIVAGERAWRAAQRAGLKTVPIMVRELDDLAVLEIGIIENVQRADLNVLEEALSYKVLMEKFERTQENIAQTIGKSXSHVANXMRLLXLPDEVQSYLVSGELTAXHARAIAAAADPVALAKQIIEGGLSVRETEALARKAPNLSAGKSKGGRPPRVKDTDTQALESDLSSVLGLDVSIDHRGSTGTLTITYATLEQLDDLCNRLTRGI

Variants of: B1
Experiment: one-hybrid fitness for binding parS DNA (scaled: cognate 1, non-cognate 0); higher = stronger binding
Settings: with parS DNA site
Procedure, shortened: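 Selection: bacterial one-hybrid in E. coli USO, HIS3 reporter with the site 19 bp from the promoter, 48 hours at 37°C on M9-minus-histidine plus 0.1 mM IPTG and 5 mM 3-AT. Libraries were Caulobacter ParB with four randomised specificity codons, sequenced on Illumina before and after selection. Fitness is the rescaled log change in variant-to-wild-type read ratio, anchored to the cognate and non-cognate sites.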

Row | Variant | one-hybrid fitness for binding parS DNA
1 | GTQV | ≤ 0.2
2 | APIP | ≤ 0.2
3 | VPHM | ≤ 0.2
4 | QTFG | ≤ 0.2
5 | AIPM | ≤ 0.2
6 | NYWL | ≤ 0.2
7 | NWLR | ≤ 0.2
8 | CNGN | ≤ 0.2
9 | YTHC | ≤ 0.2
10 | ELHC | ≤ 0.2
11 | KYNS | ≤ 0.2
12 | MKPT | ≤ 0.2
13 | MDMS | ≤ 0.2
14 | NYGC | ≤ 0.2
15 | TVSK | ≤ 0.2
16 | GEDG | ≤ 0.2
17 | WRAW | ≤ 0.2
18 | PYME | ≤ 0.2
19 | LVRC | ≤ 0.2
20 | FKHG | ≤ 0.2
21 | TPPC | ≤ 0.2
22 | PCQW | ≤ 0.2
23 | MNWI | ≤ 0.2
24 | KCSG | ≤ 0.2
25 | LTVT | ≤ 0.2
26 | LDNT | ≤ 0.2

Row | Variant | one-hybrid fitness for binding parS DNA
27 | MDCV | ≤ 0.2
28 | YLRT | ≤ 0.2
29 | HRGT | ≤ 0.2
30 | NMKV | ≤ 0.2
31 | TDYF | ≤ 0.2
32 | QKTA | ≤ 0.2
33 | PDSA | ≤ 0.2
34 | QCDE | ≤ 0.2
35 | QSHT | ≤ 0.2
36 | APSF | ≤ 0.2
37 | YKHR | ≤ 0.2
38 | PQQC | ≤ 0.2
39 | CCSL | ≤ 0.2
40 | MRGR | ≤ 0.2
41 | QTHS | ≤ 0.2
42 | LPSM | ≤ 0.2
43 | PGDC | ≤ 0.2
44 | QMNA | ≤ 0.2
45 | NQAS | ≤ 0.2
46 | TFAY | ≤ 0.2
47 | DTSV | ≤ 0.2
48 | MDDM | ≤ 0.2
49 | LDRS | ≤ 0.2
50 | QAAG | ≤ 0.2
51 | VPNT | ≤ 0.2
52 | HWQR | ≤ 0.2

Row | Variant | one-hybrid fitness for binding parS DNA
53 | FSCR | ≤ 0.2
54 | FQRR | ≤ 0.2
55 | RPMP | ≤ 0.2
56 | QTHT | ≤ 0.2
57 | RCPK | ≤ 0.2
58 | SHGR | ≤ 0.2
59 | IEPS | ≤ 0.2
60 | MTSV | ≤ 0.2
61 | ASRF | ≤ 0.2
62 | AQSL | ≤ 0.2
63 | LMEM | ≤ 0.2
64 | ISNL | ≤ 0.2
65 | QCTT | ≤ 0.2
66 | HIIG | ≤ 0.2
67 | PREY | ≤ 0.2
68 | MPKS | ≤ 0.2
69 | RHMH | ≤ 0.2
70 | TALC | ≤ 0.2
71 | RYKM | 0.369
72 | SGEF | ≤ 0.2
73 | IGTT | ≤ 0.2
74 | NNPN | ≤ 0.2
75 | QPLW | ≤ 0.2
76 | CQNK | ≤ 0.2
77 | KFKC | ≤ 0.2
78 | STAY | ≤ 0.2

Row | Variant | one-hybrid fitness for binding parS DNA
79 | ERTG | ≤ 0.2
80 | HCDN | ≤ 0.2
81 | PQPG | ≤ 0.2
82 | WPLI | ≤ 0.2
83 | QRAF | ≤ 0.2
84 | QLVV | ≤ 0.2
85 | RLWE | ≤ 0.2
86 | SAPY | ≤ 0.2
87 | VYST | ≤ 0.2
88 | CLKC | ≤ 0.2
89 | PKDM | ≤ 0.2
90 | TVTA | ≤ 0.2
91 | RWEI | ≤ 0.2
92 | ANPQ | ≤ 0.2
93 | PTWT | ≤ 0.2
94 | SVPV | ≤ 0.2
95 | SRPQ | ≤ 0.2
96 | NLEI | ≤ 0.2
97 | MQLT | ≤ 0.2
98 | EGAR | ≤ 0.2
99 | AYYW | ≤ 0.2
100 | NFPD | ≤ 0.2
101 | SDLC | ≤ 0.2
102 | ARLG | ≤ 0.2
103 | RFTI | ≤ 0.2
104 | PDFY | ≤ 0.2

Row | Variant | one-hybrid fitness for binding parS DNA
105 | GVNQ | ≤ 0.2
106 | ESET | ≤ 0.2
107 | KVHE | ≤ 0.2
108 | HRES | ≤ 0.2
109 | VNQG | ≤ 0.2
110 | AVMS | ≤ 0.2
111 | AMHG | ≤ 0.2
112 | GIEK | ≤ 0.2
113 | CVLD | ≤ 0.2
114 | KTRF | ≤ 0.2
115 | MFVR | ≤ 0.2
116 | HPWG | ≤ 0.2
117 | SNSG | ≤ 0.2
118 | QYIY | ≤ 0.2
119 | VIIE | ≤ 0.2
120 | AEVV | ≤ 0.2
121 | QAYP | ≤ 0.2
122 | SNTL | ≤ 0.2
123 | QHLA | ≤ 0.2
124 | VHKS | ≤ 0.2
125 | FRFT | ≤ 0.2
126 | TDQS | ≤ 0.2
127 | GAEY | ≤ 0.2
128 | RING | 1.03
129 | VIII | ≤ 0.2
130 | RYLE | ≤ 0.2

Row | Variant | one-hybrid fitness for binding parS DNA
131 | IAED | ≤ 0.2
132 | FSTY | ≤ 0.2
133 | NMIS | ≤ 0.2
134 | CSHG | ≤ 0.2
135 | FLTF | ≤ 0.2
136 | ADRL | ≤ 0.2
137 | PVVC | ≤ 0.2
138 | NFQG | ≤ 0.2
139 | SGTV | ≤ 0.2
140 | QMIP | ≤ 0.2
141 | PHRS | ≤ 0.2
142 | MSIS | ≤ 0.2
143 | MCNS | ≤ 0.2
144 | PCLS | ≤ 0.2
145 | SRAH | ≤ 0.2
146 | NDRT | ≤ 0.2
147 | KNTR | ≤ 0.2
148 | AAIM | ≤ 0.2
149 | DVTT | ≤ 0.2
150 | QWAF | ≤ 0.2
151 | PKTH | ≤ 0.2
152 | LEKT | ≤ 0.2
153 | FNAV | ≤ 0.2

Reference: a collection of fitness landscapes (doi:10.1016/j.celrep.2020.107928)
